Laboratory results published in paper PMC7819943, “Rice protein-binding microarrays: a tool to detect cis-acting elements near promoter regions in rice”.
Some of the results follow.

The sequences below were run against T1, OsWOX13 (Oryza sativa, UniProt Q5QMM3 1-267) (assay: protein-binding microarray (RPBM); PBS, 2% BSA, 51.3 ng/ul salmon testes DNA, 50 uM zinc acetate, 200 nM TF, 25 C, 1 h; high values mean tight binding). Conditions: protein: recombinant; tags: N-terminal polyhistidine and DsRed monomer fusion (pET32a); label: CyDye5-dUTP incorporated in the synthesized complementary strand; 3' TTTTT single-stranded linker to array surface; dsDNA, one strand shown.
T1 sequence: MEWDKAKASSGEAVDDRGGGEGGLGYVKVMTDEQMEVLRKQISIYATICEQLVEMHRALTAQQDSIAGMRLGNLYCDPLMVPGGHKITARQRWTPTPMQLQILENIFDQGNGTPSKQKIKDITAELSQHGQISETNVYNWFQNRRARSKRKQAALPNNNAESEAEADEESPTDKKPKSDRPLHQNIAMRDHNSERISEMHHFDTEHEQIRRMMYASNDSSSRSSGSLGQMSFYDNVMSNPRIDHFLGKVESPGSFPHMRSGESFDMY
Procedure, shortened: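 Binding signal is reported as fluorescence intensity per feature (arbitrary units) from an Axon 4000B scanner. Incubation used 200 nM of each Ni–NTA-purified, N-terminally polyhistidine- and DsRed-fused transcription factor from E. coli BL21-CodonPlus on a double-stranded custom Agilent array for 1 h at 25 °C, with 50 µM zinc acetate in the buffer, followed by washing.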

Sequence	binding signal
TCTCCGGATCAATCATATTAATTTAGCCCTTCTTGATGCACGGAGTCACCTAGTGCAG	12500 fluorescence intensity (a.u.)
TATGAATTGGCTATTAAATTGACTATAAATGATTTAGAGCCGGAGTCACCTAGTGCAG	37200 fluorescence intensity (a.u.)
CAGACGCATCAATCAACAAAATAAATAAATAAATAAACAACGGAGTCACCTAGTGCAG	21800 fluorescence intensity (a.u.)
ATTTAATTTTACATGTTAATAAAGTGATATATTATATATTCGGAGTCACCTAGTGCAG	5830 fluorescence intensity (a.u.)
ATTTGATAATTTAACACTCCTTAAAACATGTTTCCATTATCGGAGTCACCTAGTGCAG	10700 fluorescence intensity (a.u.)
ATTAACTATTAAAGATGATCATATAAATTAAGAAGCATAGCGGAGTCACCTAGTGCAG	8220 fluorescence intensity (a.u.)
CCTGGCTGATCGATAATTAATCCGTCCTCGCCGTCGCCATCGGAGTCACCTAGTGCAG	15400 fluorescence intensity (a.u.)
TATGATTGCAGGTCATTGCTGACCGTGGAATCGAGCTGTTCGGAGTCACCTAGTGCAG	35400 fluorescence intensity (a.u.)
TTTAAATGACTGAAAATTTCGCGGTCGAATCAGCGAGATGCGGAGTCACCTAGTGCAG	19400 fluorescence intensity (a.u.)
GGAAATTTCGTGCCTGTCATTGTGTAATGGACTCAAGTACCGGAGTCACCTAGTGCAG	9410 fluorescence intensity (a.u.)
GTGTTTTGAGTAATTGAGATGATCGTGAAATGTAGTGCTTCGGAGTCACCTAGTGCAG	11900 fluorescence intensity (a.u.)
GGTTTATTCAATTATGAAATTTTACTCCCCTATGTACTAACGGAGTCACCTAGTGCAG	11100 fluorescence intensity (a.u.)
GCTGCCTAATTTTGTCCGAGATGTGCCCATCAAATCCAACCGGAGTCACCTAGTGCAG	3880 fluorescence intensity (a.u.)
CGTAATTAAGTCCATGCACGCAACCTAATCATGTTCAACACGGAGTCACCTAGTGCAG	9810 fluorescence intensity (a.u.)
ACCATTCATTTCTATCTATTTTCTTAATAACTGTGTCTAACGGAGTCACCTAGTGCAG	4070 fluorescence intensity (a.u.)
TATTTGATAGAGTATATACGTAATACAGTAATATGATGAGCGGAGTCACCTAGTGCAG	10100 fluorescence intensity (a.u.)
TGCACTGGATTAGCTAAAAGATTGCGACATCAACCACAGCCGGAGTCACCTAGTGCAG	4440 fluorescence intensity (a.u.)
ATGATTGTTGGAGCAAGGCCCAGCCCAAGGTAGCGTACATCGGAGTCACCTAGTGCAG	13400 fluorescence intensity (a.u.)
CTAAATTTCCTCCAAAATCCACATGTAATGTGCCATTCCACGGAGTCACCTAGTGCAG	3650 fluorescence intensity (a.u.)
AGACAAATAGGCAATGCATTAATTGTACATGGATAGGATGCGGAGTCACCTAGTGCAG	4280 fluorescence intensity (a.u.)
TATAATTTATTTTGTTATTAATTTATATTTAATACTTGTGCGGAGTCACCTAGTGCAG	42100 fluorescence intensity (a.u.)

Sequence	binding signal
TCTTCACCCATTAATGAGGGATTGACATGGCTGTCCCTCGCGGAGTCACCTAGTGCAG	11100 fluorescence intensity (a.u.)
CTAGATTATTGAGTCAGATTACTATAAGCTAGATTGTTATCGGAGTCACCTAGTGCAG	17400 fluorescence intensity (a.u.)
TTTGAATTTAAATTCAAATTTGAATTGGATATATAAACTTCGGAGTCACCTAGTGCAG	6240 fluorescence intensity (a.u.)
AATTAAAATGACTGGGCTGCTGCATTACAATCTACAAGTCCGGAGTCACCTAGTGCAG	4150 fluorescence intensity (a.u.)
ATAAATTATCTTTGAATTTTGAGCATATCTTCATTTCGAACGGAGTCACCTAGTGCAG	17500 fluorescence intensity (a.u.)
TTTTGATTTTGTAGTAGTGTGCTATAAGTACATGTGTCTACGGAGTCACCTAGTGCAG	3730 fluorescence intensity (a.u.)
GCAAAGGCATGATTGATGTATACCTTATGACTTCCTAATTCGGAGTCACCTAGTGCAG	18800 fluorescence intensity (a.u.)
CGCGTTTTAATTTGCATGTTTCCATATTGTAAGAATTTAACGGAGTCACCTAGTGCAG	3780 fluorescence intensity (a.u.)
GGAAATTGGGTAAAATTTTCAATCTAACTCACCAAACCCACGGAGTCACCTAGTGCAG	31000 fluorescence intensity (a.u.)
TATGGTTAATTATGTATTTATCGACAACGGGATGTTCGTACGGAGTCACCTAGTGCAG	15000 fluorescence intensity (a.u.)
ATGATTTGATTTTGCAGTTAGCAATGTTGTATTCAAAATGCGGAGTCACCTAGTGCAG	30700 fluorescence intensity (a.u.)
CGTGTGAACTAATTACTTCAGTTACCATAAATATCCTGCACGGAGTCACCTAGTGCAG	6760 fluorescence intensity (a.u.)
TGAGGGATAATTATCCCTTGATGTTATTGGTCGGAGTACCCGGAGTCACCTAGTGCAG	18000 fluorescence intensity (a.u.)
TTATGAATAATCAGCATGTGTAATTAGTTAGTTCTATGCACGGAGTCACCTAGTGCAG	12400 fluorescence intensity (a.u.)
GCCTTGATTAAGAGAGTAATGCAGCTATGGCAATACTGCCCGGAGTCACCTAGTGCAG	19600 fluorescence intensity (a.u.)
AATCCCATCTAATTAAATTAAACGGTTGATATTATTGTTTCGGAGTCACCTAGTGCAG	9480 fluorescence intensity (a.u.)
CTCCATGATTTGACAATGTGGTGCTACAGTAAATATTTGCCGGAGTCACCTAGTGCAG	18300 fluorescence intensity (a.u.)
TTTGCTGTCAAATTTTGGTAACTATATAAGAAATCCTGCCCGGAGTCACCTAGTGCAG	3280 fluorescence intensity (a.u.)
ATTAAAGAGGATTGAAAGAGATTGAGGGAGAATAATTTCACGGAGTCACCTAGTGCAG	8540 fluorescence intensity (a.u.)
GAATGATTGGGGTTACGTGATGACAGTATGTGGTACTCGACGGAGTCACCTAGTGCAG	48500 fluorescence intensity (a.u.)
GGATTTAATTTACACTGTAGACAAAACATAAGGCCTTTTGCGGAGTCACCTAGTGCAG	19200 fluorescence intensity (a.u.)

Sequence	binding signal
CTAAGCTAATTGTCAGCTCAGTAGTCGGAGCGGGTGGACCCGGAGTCACCTAGTGCAG	3680 fluorescence intensity (a.u.)
TTGCACAGTTTACACGTAAATTACGAGATAAATCTTTTGACGGAGTCACCTAGTGCAG	7040 fluorescence intensity (a.u.)
ATAATTAATTTAGTGAGTAAAATCATTTAAAGTTTGATAACGGAGTCACCTAGTGCAG	29300 fluorescence intensity (a.u.)
GACTGGGAGGATGAGGGGTGGGTGGGTGTGGCTGCTTCTGCGGAGTCACCTAGTGCAG	4110 fluorescence intensity (a.u.)
ATGATCCTATAAATTACCATATTATTGTGTGTTTTGCACGCGGAGTCACCTAGTGCAG	3770 fluorescence intensity (a.u.)
GTCAATCATGGAGTAATTAGGCTCAAAAGATTCGTCTTGCCGGAGTCACCTAGTGCAG	21200 fluorescence intensity (a.u.)
TCTAATTATTTGATATTAGTTATTTTCCTTAACATTCGTGCGGAGTCACCTAGTGCAG	49900 fluorescence intensity (a.u.)
GTACCTTTGATTAAAGGTAGTTTGGACCACAGTTGGTACACGGAGTCACCTAGTGCAG	3990 fluorescence intensity (a.u.)
ATGTCTGTATCTGTTATTGTTTCTATTGTGTCTGATCCAACGGAGTCACCTAGTGCAG	4690 fluorescence intensity (a.u.)
TAAGCCTAATTAATCTATAATTAGAGAATGTTTACTGTAGCGGAGTCACCTAGTGCAG	39400 fluorescence intensity (a.u.)
GGGAGTATATAATTTACAAATAACTAAAATTTGATATTAACGGAGTCACCTAGTGCAG	3630 fluorescence intensity (a.u.)
GCTTTGACCACTAATCACCGGGTTAGGTCTAATGACTGTTCGGAGTCACCTAGTGCAG	12100 fluorescence intensity (a.u.)
AAACTCTAACATTTAGAGATTAGGGATATGTAGTTGGTTTCGGAGTCACCTAGTGCAG	3290 fluorescence intensity (a.u.)
GATCAAACATTGCACCTGATTGGGGTCTCATGCTTTATGTCGGAGTCACCTAGTGCAG	6920 fluorescence intensity (a.u.)
CCGCTTGATTTATGATTTATTGATGGCATCGCGTATACACCGGAGTCACCTAGTGCAG	51100 fluorescence intensity (a.u.)
CATCCAATCACAACCCTCCACCACTCACTTCTACATACTTCGGAGTCACCTAGTGCAG	14900 fluorescence intensity (a.u.)
AGCATGCTCCTTGATTGATGGATTAGGTCAGGTCTTTTATCGGAGTCACCTAGTGCAG	26000 fluorescence intensity (a.u.)
TGCCAGATTGAAGCGAGGAGAAGAAAGAGTTCGACTCAATCGGAGTCACCTAGTGCAG	6580 fluorescence intensity (a.u.)
ATAAACTGCTAGACGAATCTATTAAGCCTAATTAATCCGTCGGAGTCACCTAGTGCAG	12800 fluorescence intensity (a.u.)
TTTCCTAATTACTGCTACAGCAGCTCGGCAAAGTGATCTTCGGAGTCACCTAGTGCAG	5710 fluorescence intensity (a.u.)
CTATAATTTCGTAATTCATGATCGTTCGTTCTGTAACCTCCGGAGTCACCTAGTGCAG	24600 fluorescence intensity (a.u.)

Sequence	binding signal
ATAATAATTGACTATTCATAGTGCATATTTTCTGACTTTCCGGAGTCACCTAGTGCAG	15800 fluorescence intensity (a.u.)
CCAATTAATTATTTCTTAAGCTCTCAGACAGGCCATACGACGGAGTCACCTAGTGCAG	15600 fluorescence intensity (a.u.)
GTTTTGTCAAATTATTAGTACTAGTTTCAGTTTGATAAGGCGGAGTCACCTAGTGCAG	3270 fluorescence intensity (a.u.)
GAGAGATGACATGGACCTTGACATGTGGCCCACGTGGCATCGGAGTCACCTAGTGCAG	3180 fluorescence intensity (a.u.)
AATTAAATTAATAATATATGTTTAGATCGTACATGTGGCACGGAGTCACCTAGTGCAG	25000 fluorescence intensity (a.u.)
AATCCATTACTATCCTTCTGCTGTTATCTTTCAATAAACCCGGAGTCACCTAGTGCAG	4080 fluorescence intensity (a.u.)
CAACAGATAATCAAAGAAAATAAATATGTTAACAAATACGCGGAGTCACCTAGTGCAG	3430 fluorescence intensity (a.u.)
GACTAACCGAATTGACCGAACAAAATTCGGTCTTTCACTACGGAGTCACCTAGTGCAG	4170 fluorescence intensity (a.u.)
TTCATCATCTTCTCCTTAATTTACGCTTGGCTGGGAAGTGCGGAGTCACCTAGTGCAG	4740 fluorescence intensity (a.u.)
AGAACCTAATCACGACCAATCCGTCGCCAACACAGCCACACGGAGTCACCTAGTGCAG	8710 fluorescence intensity (a.u.)
CTGGAATAAATTGCTTTGTAAAATGATTCCAGTTTTAAATCGGAGTCACCTAGTGCAG	12000 fluorescence intensity (a.u.)
CGCCATTAATTAGCCACACCTGCAAATCTCACTCTAGCTCCGGAGTCACCTAGTGCAG	19200 fluorescence intensity (a.u.)
CATTGATTTGCATGAAGGCCCAAAAGGAAGAGGTGTTGTCCGGAGTCACCTAGTGCAG	32400 fluorescence intensity (a.u.)
GGCCAAAATTGACGCGGAGACGCCGGATCCAACCACGCACCGGAGTCACCTAGTGCAG	8350 fluorescence intensity (a.u.)
GTTTTGAAAATTTACAAATCTAATCGCCTGCCGCCCTTTGCGGAGTCACCTAGTGCAG	6710 fluorescence intensity (a.u.)
CGGAGAGATAGATTGGTTGGTTGCGAGGGCGAGGCGGCGGCGGAGTCACCTAGTGCAG	30700 fluorescence intensity (a.u.)
CAAGTTGATTGCGATGAGTTGTACAAAATTCCACACAAATCGGAGTCACCTAGTGCAG	23800 fluorescence intensity (a.u.)
CTTATTTAATCAATTTATACTTCTATATACTACGACCTATCGGAGTCACCTAGTGCAG	16300 fluorescence intensity (a.u.)
ATTTACAAATTCATCAATCATGTGAGTCTTTCGAAACAATCGGAGTCACCTAGTGCAG	11200 fluorescence intensity (a.u.)
GAGGATTTCAATCCTATAGGAAAATTTTCTATGATGCCCTCGGAGTCACCTAGTGCAG	3400 fluorescence intensity (a.u.)
AAAATCATGTAACAATTAGGCTTAAAAGATTCGTCTCGCACGGAGTCACCTAGTGCAG	7050 fluorescence intensity (a.u.)
